Experimental data reported in PMC5472792, “Bub1 positions Mad1 close to KNL1 MELT repeats to promote checkpoint signalling” (Nature Communications, 2017).

Target: T1, His tagged Mad1(485–718) (human, UniProt Q9Y6D9 485-718)
T1 construct: The Mad1 chain of m24; source: E. coli BL21(DE3), co-purified with Mad2 (HiTrap Ni column, Mono Q, Superdex 75)
T1 sequence (looked up): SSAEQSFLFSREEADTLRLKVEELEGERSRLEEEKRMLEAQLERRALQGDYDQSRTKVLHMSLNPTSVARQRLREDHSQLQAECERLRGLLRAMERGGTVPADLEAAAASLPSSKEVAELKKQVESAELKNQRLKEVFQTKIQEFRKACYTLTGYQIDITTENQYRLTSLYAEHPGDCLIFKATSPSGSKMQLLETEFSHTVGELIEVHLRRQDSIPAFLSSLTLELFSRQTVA
Test: SEC-MALS; printed as 'multi-angle light scattering analysis' of all recombinant Mad1 complexes, purified from E. coli (Ni column, size exclusion); confirmed their predicted composition
Settings: both partners purified

binding result: binds
B1: Mad2 (recombinant) (natural protein)
chain: not shown
notes: The Mad2 chain of m24
